Results from PMC4336329 (PLoS ONE, 2015).
Screen size: about 310,000 compounds; about 2,200 (0.71%) showed an effect of 50% or more. The effect is printed as a negative number. Some of the results follow.

Target: human ether-à-go-go-related gene (hERG) potassium channel (human, UniProt Q12809)
Assay: primary screen, population patch clamp on CHO cells stably expressing hERG

Chain of human ether-à-go-go-related gene (hERG) potassium channel (Q12809 whole entry, looked up): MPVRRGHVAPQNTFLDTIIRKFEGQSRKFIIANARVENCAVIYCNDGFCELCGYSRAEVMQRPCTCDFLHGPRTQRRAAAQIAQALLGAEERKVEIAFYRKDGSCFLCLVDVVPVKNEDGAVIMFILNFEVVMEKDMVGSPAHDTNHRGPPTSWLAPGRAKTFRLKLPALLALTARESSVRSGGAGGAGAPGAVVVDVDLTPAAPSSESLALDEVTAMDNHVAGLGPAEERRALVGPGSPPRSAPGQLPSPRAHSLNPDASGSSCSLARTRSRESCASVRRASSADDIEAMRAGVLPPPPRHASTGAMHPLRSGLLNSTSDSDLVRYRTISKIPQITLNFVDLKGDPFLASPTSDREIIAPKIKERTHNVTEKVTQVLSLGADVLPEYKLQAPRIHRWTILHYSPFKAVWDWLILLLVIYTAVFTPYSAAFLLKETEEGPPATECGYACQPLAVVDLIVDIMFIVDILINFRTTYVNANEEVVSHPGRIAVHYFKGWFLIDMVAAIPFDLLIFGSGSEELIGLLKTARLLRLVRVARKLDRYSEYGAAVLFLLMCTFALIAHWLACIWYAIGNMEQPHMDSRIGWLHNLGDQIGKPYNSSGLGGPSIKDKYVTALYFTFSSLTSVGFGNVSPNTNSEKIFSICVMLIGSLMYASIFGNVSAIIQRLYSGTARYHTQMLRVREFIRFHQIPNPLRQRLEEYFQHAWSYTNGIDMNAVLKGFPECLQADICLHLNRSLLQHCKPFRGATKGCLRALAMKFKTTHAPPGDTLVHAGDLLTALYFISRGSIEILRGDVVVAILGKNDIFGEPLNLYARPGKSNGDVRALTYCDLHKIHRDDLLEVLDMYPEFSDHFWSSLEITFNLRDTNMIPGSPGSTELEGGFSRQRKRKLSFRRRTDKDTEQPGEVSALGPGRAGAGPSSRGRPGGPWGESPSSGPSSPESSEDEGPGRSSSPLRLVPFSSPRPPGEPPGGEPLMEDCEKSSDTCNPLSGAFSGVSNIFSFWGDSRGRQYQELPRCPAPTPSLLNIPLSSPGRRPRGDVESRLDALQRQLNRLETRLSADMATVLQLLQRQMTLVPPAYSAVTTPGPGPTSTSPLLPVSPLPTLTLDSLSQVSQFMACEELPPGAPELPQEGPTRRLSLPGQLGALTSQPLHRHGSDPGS

Compound | hERG current change (%, negative = inhibition) at 1uM
CC(NC(=O)c1ccc(S(=O)(=O)NCc2ccco2)cc1)c1ccc(F)cc1 (stereo not drawn) | 10.1%
O=C(COC(=O)CCCNC(=O)c1ccc(Cl)cc1)Nc1cc(Cl)c(Cl)cc1Cl | 6.77%
Cc1ccc(SCC(=O)OCC(=O)NCCc2ccccc2)cc1C | 2.46%
O=C(NC(=S)Nc1cc(Cl)ccc1N1CCOCC1)c1ccc(-c2cccc(Cl)c2)o1 | 3.35%
COc1cc(/C=N/Nc2nnc3c(n2)[nH]c2ccccc23)ccc1O | 11.8%
CCOC(=O)Cn1c(=O)c2c(nc3n2CCCCN3c2ccc(OCC)cc2)n(C)c1=O | -2.41%
COc1ccc(OC)c(NC(=O)C(=O)N/N=C(\C)CC(=O)Nc2ccc(Cl)cn2)c1 | 7.3%
CCC(NC(=O)c1ccccc1NC(=O)C(C)(C)C)C(=O)N1CCCC1 (stereo not drawn) | 17.5%
O=C1N(c2ccccc2C(F)(F)F)O[C@]1(c1ccccc1)C1CCCC1 | 17%
COc1ccc(C(=O)NC(C)c2ccc(-n3ccnc3)cc2)c(OC)c1 (stereo not drawn) | -13.6%
CCN1CCN(C(C(=O)NC2CCCC2)c2ccc(Cl)cc2)CC1 (stereo not drawn) | 7.47%
Cc1ccc(-c2nn(Cc3ccccc3)cc2C=O)cc1C | -0.185%
Fc1ccc(-c2cc3nc4c(c(N5CCOCC5)n3n2)CCCC4)cc1 | 8.4%
Cn1cnc(C(=O)N2CCN(c3ccccc3)CC2)c1C(=O)N1CCN(c2ccccc2)CC1 | 9.94%
CCn1c(SCC(=O)Nc2ccccc2OC)nc(O)cc1=O | 10%
COc1ccc(-n2cc(CNCCCn3ccnc3)c(-c3ccccc3Cl)n2)cc1 | 1.48%
O=C(CNC(=O)c1ccco1)NCC(=O)OCc1ccc(C(=O)Oc2ccc(Cl)cc2)cc1 | 16.3%
O=C(Cc1ccccc1)NC(NCCc1ccccc1)C(Cl)(Cl)Cl (stereo not drawn) | -11.6%
OCC[NH+](CCO)CC(O)COc1ccc(Br)cc1.[Cl-] (stereo not drawn) | 7.83%
O=C(Cn1c(CO)nc2ccccc21)NCCc1ccc(F)cc1 | 4.45%
COc1ccccc1NC(=S)N/N=C/c1cccc(C)c1 | 14.8%
Cc1nc(C)c(-c2nnc(-c3ccc(C(C)(C)C)cc3)o2)cc1C(=O)NN | 7.52%
COc1ccc(S(=O)(=O)NCC2CCCO2)c(Cl)c1Cl (stereo not drawn) | 6.76%
C[C@@H](NC(=O)c1nc[nH]c1C(=O)NCC(=O)OCc1ccccc1)c1ccccc1 | -2.31%
